Source: the RNAGym collection of RNA variant scans (doi:10.7554/elife.90254)
The source gives no read counts; variants with many changes may rest on few reads.

B1: LINE1-mini (parent)
chain: GGCAGAGCUCAACACAGCGUGGCAAAGUGGCUGUGGCUAGACUGCC

Variants of: B1
Assay: self-cleavage, relative activity (ratio to wild type); higher = more cleavage; in vitro, sequencing; the parent is a self-cleaving ribozyme

Row | Variant | self-cleavage
1 | G7U C10A C13A C31U | 0.02
2 | G7C A16G G17U | 0.06
3 | G7C A12G C15U G30C G36C C37U | 0.01
4 | G7U C23A G30A | 0.2
5 | G7U C13A A41G | 0.05
6 | G7U C8U A11C C15A A39U | 0.04
7 | G7C C18A G21C U28A G40C | 0.12
8 | G7C G35U G36A | 0.13
9 | G7C C15A G17U G30C U43C | 0.03
10 | G7U G33C C37A | 0.01
11 | G7C C15A A16C G27U G35U | 0.05
12 | G7U G22U A24U U34G | 0.05
13 | G7C C10A U32G | 0.04
14 | G7U A16U G33C C45A | 0.03
15 | G7C U20G C23A A26G | 0.04
16 | G7C U9A G35U C42G | 0.03
17 | G7U C31G U38C G40C | 0.1
18 | G7C A25U C46U | 0.06
19 | G7U G36U C42U U43A C45A | 0.01
20 | G7U G30U U38G | 0
21 | G7C C8A C18A G36A C42G C45A | 0.09

Row | Variant | self-cleavage
22 | G7C A11C A24C A26U | 0
23 | G7C U20A U43C | 0.06
24 | G7U A14G C18A | 0.01
25 | G7U G17C G21C | 0.34
26 | G7C C18G G19C A25U C42A | 0.03
27 | G7U C8G C15U G17U G22U C23U G30C C45U | 0.02
28 | G7C A14C C45G | 0.04
29 | G7U C31G A41U | 0.09
30 | G7C C13U C23U A25C C46A | 0.01
31 | G7C A12C G19C G36A A39G | 0
32 | G7U C8A A41C | 0.05
33 | G7C C13U G17U | 0.08
34 | G7U C8A C15U | 0.71
35 | G7C G22U G30C G40U | 0.84
36 | G7C C15G G22C A26U C37A | 0.05
37 | G7U A12U G35C | 0.01
38 | G7U A12G G21U | 0.02
39 | G7U A14G G17A U28A | 0.01
40 | G7U C15A G29U A39U A41G | 0.16
41 | G7U U9G C13G C18A A41C | 0.24
42 | G7C G35A U38C | 0.1

Row | Variant | self-cleavage
43 | G7C C15A C18U A26G U32A A39C | 0.06
44 | G7C G33U G44A | 0.11
45 | G7C C8A G19U C46A | 0.53
46 | G7U U9A C18A G21C A24U G36A | 0.01
47 | G7C A24U U43A | 0.08
48 | G7U U9A A14G G21C | 0.01
49 | G7C A12U G36C U43C | 0.07
50 | G7C A12G G44U | 0.05
51 | G7C C10A U34C C45U C46U | 0.03
52 | G7U C10A U28G | 0.01
53 | G7U A11U G19U C23A A39C | 0.01
54 | G7U G40U C42G | 0.02
55 | G7U C8G G21C U28G U43C | 0.03
56 | G7C G27A G44C | 0.13
57 | G7U C13G C46U | 0.06
58 | G7C C10G A11U A26C C46G | 0.03
59 | G7C G21A C31G U32A U34A | 0.01
60 | G7C C15A U20A G29A G35C G44A | 0.02
61 | G7U U9C C15A G44A | 0.01
62 | G7U G22U G27C G40C C42U | 0.31
63 | G7U U9G C10G C13U U32A | 0.02

Row | Variant | self-cleavage
64 | G7U C8G A26C | 0.19
65 | G7U U20G C45A | 0.04
66 | G7U C8G C10A G21A A24C | 0.01
67 | G7C C13G A26G G44A | 0.06
68 | G7U C8U G21C C45A | 0.19
69 | G7C C18A A26U C31G | 0.03
70 | G7U G27U U28C U32A U38C | 0.03
71 | G7C G17U U32A U34A | 0.02
72 | G7C C10U A39U | 0.03
73 | G7U C10G A41G C45U | 0.01
74 | G7U C8G A16C C46U | 0.04
75 | G7C C42U C45U | 0.09
76 | G7U G17A G33C | 0.07
77 | G7U C13U G21U | 0.15
78 | G7U U9A G44A | 0.24
79 | G7U C10G G35A | 0.03
80 | G7U G21U G30U G33C G36C | 0.12
81 | G7C C8U C10A A14U C37U A39C | 0.02
82 | G7U C8A C10U G36U | 0.03
83 | G7C C18G G30C G44U C45G | 0.05
